Measured values from PubChem BioAssay (NCATS).
The inconclusive results got no clear call from the source; some entries with a clear call stand among them for comparison. Potencies of inconclusive entries are left out as doubtful fits. Active and inactive are the calls of the source. Calls come from the whole dose curve; as a rule, active = well fitted inhibition curve with a large enough effect; inconclusive = small, poorly fitted or top-dose-only effect, or effect the other way; inactive = flat fitted curve, though single readings scatter.

molecular target: ATPase family AAA domain-containing protein 5 (Homo sapiens) (UniProt Q96QE3); experiment: Validation screen for small molecules that inhibit ELG1-dependent DNA repair in human embryonic kidney (HEK293T) cells expressing luciferase-tagged ELG1 (AID 493107); conditions: HEK293T ELG1-luciferase level, luminescence, 5-fluorouridine co-treatment, 16 h; series mostly up to 46.1 µM; note: nearly all actives have a fitted effect of over 70% in size
Sequence of UniProt Q96QE3 (Q96QE3 whole entry, looked up, the tested form may be a part): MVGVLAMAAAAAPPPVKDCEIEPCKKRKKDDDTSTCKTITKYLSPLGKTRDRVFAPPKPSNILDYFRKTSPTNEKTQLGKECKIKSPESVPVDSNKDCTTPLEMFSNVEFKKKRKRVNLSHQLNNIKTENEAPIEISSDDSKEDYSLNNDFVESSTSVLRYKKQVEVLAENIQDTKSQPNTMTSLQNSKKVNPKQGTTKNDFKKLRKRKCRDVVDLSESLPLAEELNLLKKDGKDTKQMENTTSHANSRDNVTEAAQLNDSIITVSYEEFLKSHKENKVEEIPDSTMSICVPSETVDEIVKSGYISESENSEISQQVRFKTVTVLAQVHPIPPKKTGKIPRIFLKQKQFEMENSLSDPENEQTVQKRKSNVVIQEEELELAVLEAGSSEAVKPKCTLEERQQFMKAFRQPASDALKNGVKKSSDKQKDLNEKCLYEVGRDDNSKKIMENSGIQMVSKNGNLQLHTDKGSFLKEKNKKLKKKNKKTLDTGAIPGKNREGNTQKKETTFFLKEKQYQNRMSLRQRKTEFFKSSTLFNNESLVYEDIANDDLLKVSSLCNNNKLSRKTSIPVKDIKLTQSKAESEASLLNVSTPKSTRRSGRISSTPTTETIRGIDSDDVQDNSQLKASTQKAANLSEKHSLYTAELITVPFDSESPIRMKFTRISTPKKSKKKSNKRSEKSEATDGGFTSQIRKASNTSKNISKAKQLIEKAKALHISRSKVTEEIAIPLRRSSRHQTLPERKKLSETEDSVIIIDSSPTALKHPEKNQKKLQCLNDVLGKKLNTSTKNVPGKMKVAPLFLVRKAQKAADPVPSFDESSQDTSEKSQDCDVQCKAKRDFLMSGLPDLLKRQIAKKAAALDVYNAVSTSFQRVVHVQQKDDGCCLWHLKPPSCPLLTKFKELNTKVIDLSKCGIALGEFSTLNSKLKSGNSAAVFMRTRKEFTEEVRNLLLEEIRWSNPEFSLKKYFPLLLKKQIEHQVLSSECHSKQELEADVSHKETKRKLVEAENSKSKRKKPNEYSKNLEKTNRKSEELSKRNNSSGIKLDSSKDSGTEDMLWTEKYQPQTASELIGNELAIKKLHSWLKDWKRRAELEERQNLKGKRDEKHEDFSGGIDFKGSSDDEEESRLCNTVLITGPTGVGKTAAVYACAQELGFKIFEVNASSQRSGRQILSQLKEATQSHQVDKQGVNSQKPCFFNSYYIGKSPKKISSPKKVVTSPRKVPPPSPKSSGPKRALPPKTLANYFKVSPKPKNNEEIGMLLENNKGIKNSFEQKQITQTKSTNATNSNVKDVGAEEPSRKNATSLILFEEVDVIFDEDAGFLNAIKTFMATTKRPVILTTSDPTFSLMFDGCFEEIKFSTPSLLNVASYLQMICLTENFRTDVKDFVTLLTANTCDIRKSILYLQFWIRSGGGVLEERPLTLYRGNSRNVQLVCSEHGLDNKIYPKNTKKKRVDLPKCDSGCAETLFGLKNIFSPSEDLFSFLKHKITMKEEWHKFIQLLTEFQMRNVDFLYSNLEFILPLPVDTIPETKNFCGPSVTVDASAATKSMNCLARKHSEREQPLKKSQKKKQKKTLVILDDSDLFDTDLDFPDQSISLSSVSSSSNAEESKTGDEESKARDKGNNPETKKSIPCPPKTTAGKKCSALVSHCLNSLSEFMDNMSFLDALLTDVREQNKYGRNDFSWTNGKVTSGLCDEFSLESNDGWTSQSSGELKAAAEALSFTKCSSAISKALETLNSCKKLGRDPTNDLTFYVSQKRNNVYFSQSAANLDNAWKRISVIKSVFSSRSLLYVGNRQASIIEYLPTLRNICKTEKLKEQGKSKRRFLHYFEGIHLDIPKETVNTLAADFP
Source text: NIH Molecular Libraries Probe Production Network [MLPCN]
NIH Chemical Genomics Center [NCGC]
Assay Provider: Kyungjae Myung, NHGRI, NIH
Keywords: MLPCN, qHTS, NCGC, genotoxicity, cancer
Cancer cells divide rapidly compared to normal cells in the body. During cell division, cancer cells need to duplicate their genome by DNA replication. The failure of genome duplication leads to cancer cells' death. Therefore, inhibitors of DNA replication could specifically kill cancer cells. Based on this concept, many chemotherapeutic agents were developed and have been used to treat cancer patients. However, there are a limited number of agents available in the clinical setting, and some of those that do exist have low efficacy and severe side effects. Therefore, if we can find the compounds that effectively block DNA replication either by directly damaging DNA or by inhibiting other cellular mechanisms, the options for cancer treatment will be broadened. With this in mind, we developed a quantitative high-throughput ELG1-luciferase reporter gene assay. Small molecules that specifically block ELG1 function in response to DNA damage can be identified by monitoring the suppression of luciferase activity. Since ELG1 defines a pathway for repairing DNA damage, agents blocking ELG1 function can be used to sensitize cancer cells to chemotherapeutic agents whose mechanism of action involves the induction of DNA damage.
For genotoxicity screening, 2,000 cells in 4 uL/well were dispensed into white, solid-bottom 1536-well plates using a solenoid-based dispenser. Following transfer of 1 uL 5-Fluorouridine and 23 nL compound or DMSO vehicle by a pin tool, the plates were incubated 16 hr at 37 °C and 5% CO2. 5 ul ONE-Glo (Promega) was then added to each plate and following a 30 min incubation at room temperature, luciferase activity was quantified on a ViewLux CCD-based plate reader.
Potency is the fitted concentration of half-maximal effect; tags give direction and shape of the fitted curve.

Question: How did the Potency turn out when CC(N)(C(=O)O)c1ccc(C(=O)O)cc1 (stereo not given) was run?
Answer: inactive

Question: With C1CCC(N=C(NC23CC4CC(CC(C4)C2)C3)N2CCOCC2)CC1 as the compound, how does the Potency read?
Answer: inconclusive [inhibitor, single point]

Question: How did the Potency turn out when N=C(N)c1ccc(N)cc1 was run?
Answer: inactive

Question: How did the Potency turn out when N[C@@H](Cc1ccc(F)cc1)C(=O)O was run?
Answer: inconclusive [activator, single point]

Question: How did the Potency turn out when O=C(O)CC[C@@H](C(=O)O)N1C(=O)c2ccccc2C1=O was run?
Answer: inactive

Question: CC(N)(Cc1ccc(O)cc1)C(=O)O (stereo not given) was tested. Which Potency did it give?
Answer: inactive

Question: How did the Potency turn out when Brc1c(Br)c(Br)c2[nH]cnc2c1Br was run?
Answer: active: 4.61 µM

Question: How did the Potency turn out when N.N.N.N.N.N.N.N.N.N.N.N.N.N.O.O.[Ru+4].[Ru+5].[Ru+5] was run?
Answer: inconclusive [inhibitor, partial curve, poor fit]

Question: How did the Potency turn out when CNC(=O)[C@H]1O[C@@H](n2cnc3c(NCc4ccc(N)cc4)ncnc32)[C@H](O)[C@@H]1O was run?
Answer: inactive

Question: With N=C(N)c1ccc(OCCCCCOc2ccc(C(=N)N)cc2)cc1 (tested in a mixture with another compound) as the compound, how does the Potency read?
Answer: inconclusive [inhibitor, partial curve]

Question: N=C(N)SCCN was tested. Which Potency did it give?
Answer: inactive

Question: How did the Potency turn out when CC(C)(C)NCC(O)COc1cccc2[nH]c(=O)[nH]c12 (stereo not given) was run?
Answer: inconclusive [activator, partial curve, poor fit]

Question: Which Potency does the source give for NCCCNCCCCNCCCN here?
Answer: inactive

Question: Which Potency does the source give for NCC(O)c1ccc(O)c(O)c1 (stereo not given) here?
Answer: inconclusive [activator, partial curve]

Question: With Cc1ccccc1CNc1ncnc2c1ncn2C1OC(CO)C(O)C1O (stereo not given) as the compound, how does the Potency read?
Answer: active: 13 µM

Question: For COC(=O)[C@H](NC(=O)c1cc(-c2ccccc2)nc2ccccc12)c1ccccc1, which Potency is on record?
Answer: inconclusive [inhibitor, single point]

Question: For CN(CC[C@@H](Oc1ccc(C(F)(F)F)cc1)c1ccccc1)CC(=O)O, which Potency is on record?
Answer: inactive

Question: With O=c1ccc2c(OCCCCc3ccccc3)c3ccoc3cc2o1 as the compound, how does the Potency read?
Answer: inactive

Question: For NC(=S)NCCC[C@H](N)C(=O)O, which Potency is on record?
Answer: inactive

Question: How did the Potency turn out when C=CCN1CCc2cc(O)c(O)cc2C(c2ccccc2)C1 (stereo not given) was run?
Answer: inactive

Question: How did the Potency turn out when C[N+]1(C)CCC(OC(=O)C(c2ccccc2)c2ccccc2)CC1 was run?
Answer: inconclusive [activator, partial curve, poor fit]

Question: For CCC1(O)CC2CN(CCc3c([nH]c4ccccc34)[C@@](C(=O)OC)(c3cc4c(cc3OC)N(C)C3[C@]45CCN4CC=C[C@@](CC)([C@@H](OC(C)=O)[C@]3(O)C(=O)OC)[C@H]45)C2)C1 (stereo not given in full), which Potency is on record?
Answer: inconclusive [inhibitor, partial curve, poor fit]

Question: For CNCCNS(=O)(=O)c1cccc2cnccc12, which Potency is on record?
Answer: active: 9.2 µM

Question: How did the Potency turn out when CC[N+](CC)(CC)CC(=O)Nc1c(C)cccc1C was run?
Answer: inactive

Question: Cc1cccc(C(=O)NCN2CCN(c3ccccc3C#N)CC2)c1 was tested. Which Potency did it give?
Answer: inconclusive [activator, single point]

Question: How did the Potency turn out when CCCn1c(=O)c2[nH]c(C3CCCC3)nc2n(CCC)c1=O was run?
Answer: inconclusive [activator, single point]

Question: CCCCOc1cc(CC2CNC(=O)N2)ccc1OC (stereo not given) was tested. Which Potency did it give?
Answer: inactive

Question: How did the Potency turn out when NC(=O)c1cc[n+](CC2=C(C(=O)O)N3C(=O)[C@@H](NC(=O)[C@@H](c4ccccc4)S(=O)(=O)[O-])[C@H]3SC2)cc1 was run?
Answer: inactive

Question: For Nc1ncnc2c1ncn2[C@@H]1O[C@H](COP(=O)(O)OP(=O)(O)OP(=O)(O)OP(=O)(O)OC[C@@H]2O[C@H](n3cnc4c(N)ncnc43)[C@@H](O)[C@H]2O)[C@@H](O)[C@H]1O, which Potency is on record?
Answer: inconclusive [activator, single point]

Question: How did the Potency turn out when CCCn1c(=O)c(C)cn2nc(N)nc12 was run?
Answer: inactive

Question: CC(/C=C/c1cccc(Oc2ccc(F)cc2)c1)N(O)C(N)=O (stereo not given) was tested. Which Potency did it give?
Answer: inconclusive [activator, single point]

Question: How did the Potency turn out when Fc1ccc(CN(C2=NCCN2)c2c(Cl)cccc2Cl)cc1 was run?
Answer: inconclusive [inhibitor, partial curve]

Question: N[C@H](C(=O)O)[C@H](O)C(=O)O was tested. Which Potency did it give?
Answer: inconclusive [activator, partial curve, poor fit]

Question: Which Potency does the source give for C#C[C@]1(O)CC[C@H]2[C@@H]3CCC4=Cc5oncc5CC4(C)[C@H]3CCC21C (stereo not given in full) here?
Answer: inconclusive [inhibitor, single point]

Question: For N#C/C(=C\c1c[nH]c2ccccc12)C(=O)c1ccc(O)c(O)c1, which Potency is on record?
Answer: inconclusive [inhibitor, partial curve]

Question: How did the Potency turn out when COc1ccccc1N1CCN(CCN(C(=O)c2ccc(F)cc2)c2ccccn2)CC1 was run?
Answer: inconclusive [inhibitor, single point]

Question: How did the Potency turn out when CC(=O)O[C@H]1C[C@@H]2CC[C@@H]3[C@H](CC[C@@]4(C)[C@H]3C[C@H]([N+]3(C)CCCCC3)[C@@H]4OC(C)=O)[C@@]2(C)C[C@@H]1[N+]1(C)CCCCC1 was run?
Answer: inactive

Question: How did the Potency turn out when O=C(O)C1=CCCNC1 was run?
Answer: inactive

Question: Which Potency does the source give for O=c1[nH]c2cc(Cl)c(Cl)cc2[nH]c1=O here?
Answer: inconclusive [activator, single point]

Question: For CCCCC[C@H](CC(=O)NO)C(=O)N[C@H](C(=O)N1CCC[C@H]1CO)C(C)C, which Potency is on record?
Answer: inconclusive [activator, single point]
